Experimental data reported in patent US9650358B2 (priority 2013, dated 2017).
pEC50: −log10 of the molar value.

The molecules below were run on H929 cells (assay: cells). Settings: Homo sapiens, NCI-H929, 24 h, read-out: H929 viability EC50.
In the case of `O=C(Nc1cc(-c2ccc3ncn(Cc4cncc(F)c4)c3c2)c(Cl)cn1)[C@@H]1CCCNC1` [Example 131, (3R)—N-(5-chloro-4-{1-[(5-fluoropyridin-3-yl)methyl]-1H-benzimidazol-6-yl}pyridin-2-yl)piperidine-3-carboxamide], the pEC50 was 6.44. For `N#CC1(Cn2cnc3ccc(-c4cc(NC(=O)[C@@H]5CCCNC5)ncc4Cl)cc32)CCOCC1` [Example 132, (3R)—N-(5-chloro-4-{1-[(4-cyanotetrahydro-2H-pyran-4-yl)methyl]-1H-benzimidazol-6-yl}pyridin-2-yl)piperidine-3-carboxamide], the pEC50 was 6.07. In the case of `O=C(Nc1cc(-c2ccc3ccn(Cc4cccc(F)c4)c3n2)c(Cl)cn1)[C@@H]1CCCNC1` [Example 134, (3R)—N-{5-chloro-4-[1-(3-fluorobenzyl)-1H-pyrrolo[2,3-b]pyridin-6-yl]pyridin-2-yl}piperidine-3-carboxamide], the pEC50 was 6.11. `O=C(Nc1cc(-c2ccc3cnn(Cc4cccc(F)c4)c3c2)c(Cl)cn1)[C@@H]1CCCNC1` [Example 136, (3R)—N-{5-chloro-4-[1-(3-fluorobenzyl)-1H-indazol-6-yl]pyridin-2-yl}piperidine-3-carboxamide] was tested, and the pEC50 was 5.46. `O=C(Nc1cc(-c2ccc3nnn(CCN(CCO)CCO)c3c2)c(Cl)cn1)[C@@H]1CCCNC1` [Example 137, (3R)—N-[4-(1-{2-[bis(2-hydroxyethyl)amino]ethyl}-1H-benzotriazol-6-yl)-5-chloropyridin-2-yl]piperidine-3-carboxamide] gave a pEC50 of under 5.00. `O=C(Nc1cc(-c2ccc3nnn(CCN4CCOCC4)c3c2)c(Cl)cn1)[C@@H]1CCCNC1` [Example 141, (3R)—N-(5-chloro-4-{1-[2-(morpholin-4-yl)ethyl]-1H-benzotriazol-6-yl}pyridin-2-yl)piperidine-3-carboxamide] showed a pEC50 of 5.68. `Cc1nc2ccc(-c3cc(NC(=O)[C@@H]4CCCNC4)ncc3Cl)cc2n1Cc1cccc(F)c1` [Example 142, (3R)—N-{5-chloro-4-[1-(3-fluorobenzyl)-2-methyl-1H-benzimidazol-6-yl]pyridin-2-yl}piperidine-3-carboxamide] gave a pEC50 of 6.36. Molecule `C[C@H](c1cccc(F)c1)n1nnc2ccc(-c3cc(NC(=O)[C@@H]4CCCNC4)ncc3Cl)cc21` [Example 145, (3R)—N-(5-chloro-4-{1-[(1R)-1-(3-fluorophenyl)ethyl]-1H-benzotriazol-6-yl}pyridin-2-yl)piperidine-3-carboxamide] has a pEC50 of 6.43. `O=C(Nc1cc(-c2cc3c(cc2Cl)ncn3CC2CCOCC2)c(Cl)cn1)[C@@H]1CCCNC1` [Example 147, (3R)—N-{5-chloro-4-[5-chloro-1-(tetrahydro-2H-pyran-4-ylmethyl)-1H-benzimidazol-6-yl]pyridin-2-yl}piperidine-3-carboxamide] was tested, and the pEC50 was 6.07. `CS(=O)(=O)Nc1ccc(CN2CCc3ccc(-c4cc(NC(=O)C5CCCNC5)ncc4Cl)cc32)cc1` (centres unmarked) [Example 149, N-[5-chloro-4-(1-{4-[(methylsulfonyl)amino]benzyl}-2,3-dihydro-1H-indol-6-yl)pyridin-2-yl]piperidine-3-carboxamide] gave a pEC50 of 5.24. Molecule `CS(=O)(=O)c1cc(CN2CCc3ccc(-c4cc(NC(=O)C5CCCNC5)ncc4Cl)cc32)ccc1F` (centres unmarked) [Example 150, N-(5-chloro-4-{1-[4-fluoro-3-(methylsulfonyl)benzyl]-2,3-dihydro-1H-indol-6-yl}pyridin-2-yl)piperidine-3-carboxamide] has a pEC50 of 5.85. Work on `O=C(Nc1cc(-c2ccc3c(c2)N(Cc2cncnc2)CC3)c(Cl)cn1)C1CCCNC1` (centres unmarked) [Example 158, N-{5-chloro-4-[1-(pyrimidin-5-ylmethyl)-2,3-dihydro-1H-indol-6-yl]pyridin-2-yl}piperidine-3-carboxamide] yielded a pEC50 of 5.74. `O=C(Nc1cc(-c2ccc3c(c2)N(Cc2nc4ccccc4[nH]2)CC3)c(Cl)cn1)C1CCCNC1` (centres unmarked) [Example 161, N-{4-[1-(1H-benzimidazol-2-ylmethyl)-2,3-dihydro-1H-indol-6-yl]-5-chloropyridin-2-yl}piperidine-3-carboxamide] gave a pEC50 of 5.32. `Cn1nnc2cc(CN3CCc4ccc(-c5cc(NC(=O)C6CCCNC6)ncc5Cl)cc43)ccc21` (centres unmarked) [Example 164, N-(5-chloro-4-{1-[(1-methyl-1H-benzotriazol-5-yl)methyl]-2,3-dihydro-1H-indol-6-yl}pyridin-2-yl)piperidine-3-carboxamide] gave a pEC50 of 5.82. Work on `O=C(Nc1cc(-c2ccc3c(c2)N(Cc2ccc4nccnc4c2)CC3)c(Cl)cn1)C1CCCNC1` (centres unmarked) [Example 167, N-{5-chloro-4-[1-(quinoxalin-6-ylmethyl)-2,3-dihydro-1H-indol-6-yl]pyridin-2-yl}piperidine-3-carboxamide] yielded a pEC50 of 5.52. Molecule `O=C(Nc1cc(-c2ccc3c(c2)N(Cc2cnccn2)CC3)c(Cl)cn1)C1CCCNC1` (centres unmarked) [Example 168, N-{5-chloro-4-[1-(pyrazin-2-ylmethyl)-2,3-dihydro-1H-indol-6-yl]pyridin-2-yl}piperidine-3-carboxamide] has a pEC50 of 5.49. With `O=C(Nc1cc(-c2ccc3c(c2)N(Cc2cnc4c(c2)OCCO4)CC3)c(Cl)cn1)C1CCCNC1` (centres unmarked) [Example 169, N-{5-chloro-4-[1-(2,3-dihydro[1,4]dioxino[2,3-b]pyridin-7-ylmethyl)-2,3-dihydro-1H-indol-6-yl]pyridin-2-yl}piperidine-3-carboxamide] the pEC50 was 5.62. In the case of `CS(=O)(=O)c1ccc(CN2CCc3ccc(-c4cc(NC(=O)C5CCCNC5)ncc4Cl)cc32)cn1` (centres unmarked) [Example 170, N-[5-chloro-4-(1-{[6-(methylsulfonyl)pyridin-3-yl]methyl}-2,3-dihydro-1H-indol-6-yl)pyridin-2-yl]piperidine-3-carboxamide], the pEC50 was 5.70. Molecule `NS(=O)(=O)c1ccc(CN2CCc3ccc(-c4cc(NC(=O)C5CCCNC5)ncc4Cl)cc32)cc1` (centres unmarked) [Example 171, N-{5-chloro-4-[1-(4-sulfamoylbenzyl)-2,3-dihydro-1H-indol-6-yl]pyridin-2-yl}piperidine-3-carboxamide] has a pEC50 of 5.44. Molecule `CS(=O)(=O)c1ccc(CN2CCc3ccc(-c4cc(NC(=O)C5CCCNC5)ncc4Cl)cc32)cc1F` (centres unmarked) [Example 172, N-(5-chloro-4-{1-[3-fluoro-4-(methylsulfonyl)benzyl]-2,3-dihydro-1H-indol-6-yl}pyridin-2-yl)piperidine-3-carboxamide] has a pEC50 of 5.96. Work on `O=C(Nc1cc(-c2cnc3ncn(Cc4cccc(F)c4)c3c2)c(Cl)cn1)C1CCCNC1` (centres unmarked) [Example 176, N-{5-chloro-4-[1-(3-fluorobenzyl)-1H-imidazo[4,5-b]pyridin-6-yl]pyridin-2-yl}piperidine-3-carboxamide] yielded a pEC50 of 6.66. With `Clc1cnc(NC2CC3(CCNCC3)C2)cc1-c1ccc2ncn(CC3CCOCC3)c2c1` [Example 179, N-{5-chloro-4-[1-(tetrahydro-2H-pyran-4-ylmethyl)-1H-benzimidazol-6-yl]pyridin-2-yl}-7-azaspiro[3.5]nonan-2-amine] the pEC50 was 5.80. Work on `O=C(/C=C/c1ccncc1)Nc1cc(-c2ccc3ncn(Cc4cccc(F)c4)c3c2)c(Cl)cn1` [Example 181, (2E)-N-{5-chloro-4-[1-(3-fluorobenzyl)-1H-benzimidazol-6-yl]pyridin-2-yl}-3-(pyridin-4-yl)prop-2-enamide] yielded a pEC50 of 6.40. With `CS(=O)(=O)CC(=O)Nc1cc(-c2ccc3ncn(Cc4cccc(F)c4)c3c2)c(Cl)cn1` [Example 184, N-{5-chloro-4-[1-(3-fluorobenzyl)-1H-benzimidazol-6-yl]pyridin-2-yl}-2-(methylsulfonyl)acetamide] the pEC50 was 6.57. Molecule `O=C(Nc1cc(-c2ccc3ncn(Cc4cccc(F)c4)c3c2)c(Cl)cn1)C1CC(=O)N(Cc2ccccc2)C1` (centres unmarked) [Example 186, 1-benzyl-N-{5-chloro-4-[1-(3-fluorobenzyl)-1H-benzimidazol-6-yl]pyridin-2-yl}-5-oxopyrrolidine-3-carboxamide] has a pEC50 of 6.66. `O=C(Nc1cc(-c2ccc3ncn(Cc4cccc(F)c4)c3c2)c(Cl)cn1)c1cnc2c(c1)OCCO2` [Example 187, N-{5-chloro-4-[1-(3-fluorobenzyl)-1H-benzimidazol-6-yl]pyridin-2-yl}-2,3-dihydro[1,4]dioxino[2,3-b]pyridine-7-carboxamide] was tested, and the pEC50 was 6.85. In the case of `O=C(Nc1cc(-c2ccc3ncn(Cc4cccc(F)c4)c3c2)c(Cl)cn1)C1CCC(O)(C(F)(F)F)CC1` (centres unmarked) [Example 194, N-{5-chloro-4-[1-(3-fluorobenzyl)-1H-benzimidazol-6-yl]pyridin-2-yl}-4-hydroxy-4-(trifluoromethyl)cyclohexanecarboxamide], the pEC50 was 6.57. `CS(=O)(=O)N1CC2(C1)C(C(=O)Nc1cc(-c3ccc4ncn(Cc5cccc(F)c5)c4c3)c(Cl)cn1)CCS2(=O)=O` (centres unmarked) [Example 196, N-{5-chloro-4-[1-(3-fluorobenzyl)-1H-benzimidazol-6-yl]pyridin-2-yl}-2-(methylsulfonyl)-5-thia-2-azaspiro[3.4]octane-8-carboxamide 5,5-dioxide] was tested, and the pEC50 was 6.35. `CCNC(=O)N1CC2(C1)C(C(=O)Nc1cc(-c3ccc4ncn(Cc5cccc(F)c5)c4c3)c(Cl)cn1)CCS2(=O)=O` (centres unmarked) [Example 197, N^8-(5-chloro-4-(1-(3-fluorobenzyl)-1H-benzo[d]imidazol-6-yl)pyridin-2-yl)-N^2-ethyl-5-thia-2-azaspiro[3.4]octane-2,8-dicarboxamide 5,5-dioxide] gave a pEC50 of 5.40. With `NC(=O)NC(=O)/C=C/C(=O)Nc1cc(-c2ccc3ncn(Cc4cccc(F)c4)c3c2)c(Cl)cn1` [Example 206, (2E)-N-carbamoyl-N′-{5-chloro-4-[1-(3-fluorobenzyl)-1H-benzimidazol-6-yl]pyridin-2-yl}but-2-enediamide] the pEC50 was 5.60. `NC(=O)C1(C(=O)Nc2cc(-c3ccc4ncn(Cc5cccc(F)c5)c4c3)c(Cl)cn2)CC1` [Example 207, N-{5-chloro-4-[1-(3-fluorobenzyl)-1H-benzimidazol-6-yl]pyridin-2-yl}cyclopropane-1,1-dicarboxamide] was tested, and the pEC50 was 5.96. In the case of `O=C1NC2CC(C(=O)Nc3cc(-c4ccc5ncn(CC6CCOCC6)c5c4)c(Cl)cn3)CC2O1` (centres unmarked) [Example 211, N-{5-chloro-4-[1-(tetrahydro-2H-pyran-4-ylmethyl)-1H-benzimidazol-6-yl]pyridin-2-yl}-2-oxohexahydro-2H-cyclopenta[d][1,3]oxazole-5-carboxamide], the pEC50 was 6.10.
